Some of the results follow. Many values rest on one well or one pass, so single values are uncertain.
Key:
Test in all cases: cell count relative to DMSO control; melanoma cells; higher = more viable cells
Details in all cases: library dose: standard library concentration; 72 h
G361 = tested on: G361
IPC-298 = tested on: IPC-298
IST-MEL1 = tested on: IST-MEL1
LB2518-MEL = tested on: LB2518-MEL
LOXIMVI = tested on: LOXIMVI
MEL-HO = tested on: MEL-HO
MZ2-MEL = tested on: MZ2-MEL
MeWo = tested on: MeWo
RPMI7951 = tested on: RPMI7951
RVH-421 = tested on: RVH-421
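Also: cells treated in 1,536-well plates, then fixed and DAPI-stained, with nuclei counted from automated high-throughput microscope images.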

Structure (SMILES) | cell count (G361) [%] | cell count (IPC-298) [%] | cell count (IST-MEL1) [%] | cell count (LB2518-MEL) [%] | cell count (LOXIMVI) [%] | cell count (MEL-HO) [%] | cell count (MZ2-MEL) [%] | cell count (MeWo) [%] | cell count (RPMI7951) [%] | cell count (RVH-421) [%]
CS(=O)(=O)c1ccc(C(=O)Nc2ccc(Cl)c(-c3ccccn3)c2)c(Cl)c1 [vismodegib] + O=C(O)c1ccc(-c2c[nH]c3ncc(-c4ccccc4)cc23)cc1C1CCCC1 [GSK650394] (first compound 5 µM, partner dose 0.8 µM) | 78.2 | 103 | 99.8 | 113 | 101 | 84.7 | 118 | 80.1 | 130 | 102
C=C(c1ccc(C(=O)O)cc1)c1cc2c(cc1C)C(C)(C)CCC2(C)C [Bexarotene] + O=C(Nc1cccc(Cl)c1)Nc1ncc(CCNc2ncnc3ccsc23)s1 [SNS314] (first compound 10 µM, partner dose 0.004 µM) | 80.2 | 77.3 | 54.8 | 94.3 | 74.1 | 80.6 | 83.4 | 70.3 | 52.2 | 76.4
NC1(c2ccc(-c3nc4ccn5c(=O)[nH]nc5c4cc3-c3ccccc3)cc2)CCC1 + O=C(Nc1ccccc1)c1cc([N+](=O)[O-])ccc1Cl [GW9662] (first compound 2 µM, partner dose 10 µM) | 74.1 | 87.2 | 87.1 | 77.7 | 86.3 | 69 | 74.8 | 69.3 | 74.8 | 74.5
CN(c1ncccc1CNc1nc(Nc2ccc3c(c2)CC(=O)N3)ncc1C(F)(F)F)S(C)(=O)=O + CN(NC(=O)CC(=O)NN(C)C(=S)c1ccccc1)C(=S)c1ccccc1 [STA4783] (first compound 0.4 µM, partner dose 0.03 µM) | 37.9 | 81.6 | 49.3 | 17.1 | 65.1 | 76.9 | 94.4 | 12.4 | 60.1 | 53.5
C=C(c1ccc(C(=O)O)cc1)c1cc2c(cc1C)C(C)(C)CCC2(C)C [Bexarotene] + CCc1ccc(CCOc2ccc(CC3SC(=O)NC3=O)cc2)nc1 [pioglitazone] (first compound 10 µM, partner dose 10 µM) | 86.3 | 77.1 | 91.7 | 103 | 163 | 87 | 87 | 76.3 | 58.8 | 78.6
C=C(c1ccc(C(=O)O)cc1)c1cc2c(cc1C)C(C)(C)CCC2(C)C [Bexarotene] + CN(C)S(=O)(=O)c1ccc2c(c1)/C(=C/c1cc3c([nH]1)CCCC3)C(=O)N2 [SU6656] (first compound 10 µM, partner dose 2 µM) | 66.6 | 89.8 | 92.5 | 82.4 | 132 | 87.9 | 121 | 89.3 | 58.4 | 90.1
CN(c1ncccc1CNc1nc(Nc2ccc3c(c2)CC(=O)N3)ncc1C(F)(F)F)S(C)(=O)=O + Cc1nc(Nc2ncc(C(=O)Nc3c(C)cccc3Cl)s2)cc(N2CCN(CCO)CC2)n1 [dasatanib] (first compound 0.4 µM, partner dose 0.02 µM) | 54.1 | 71.4 | 67.4 | 78 | 12.3 | 63.9 | 16 | 94.2 | 34.3 | 53.4
CCCS(=O)(=O)Nc1ccc(F)c(C(=O)c2c[nH]c3ncc(Cl)cc23)c1F + Cc1cc([N+](=O)[O-])ccc1NS(=O)(=O)c1cc(Cl)ccc1Cl [FH535] (first compound 0.4 µM, partner dose 5 µM) | 49.1 | 43.5 | 57 | 94 | 91.3 | 52.5 | 71.8 | 81.2 | 119 | 68.1
NC1(c2ccc(-c3nc4ccn5c(=O)[nH]nc5c4cc3-c3ccccc3)cc2)CCC1 + Cn1cncc1[C@@](N)(c1ccc(Cl)cc1)c1ccc2c(c1)c(-c1cccc(Cl)c1)cc(=O)n2C [tipifarnib] (first compound 2 µM, partner dose 0.05 µM) | 69.5 | 87.2 | 68.1 | 48.2 | 76.5 | 62.2 | 95.2 | 73.7 | 93.4 | 77.9
CCCS(=O)(=O)Nc1ccc(F)c(C(=O)c2c[nH]c3ncc(Cl)cc23)c1F + Cn1nnc2c(C(N)=O)ncn2c1=O [temozolomide] (first compound 0.4 µM, partner dose 10 µM) | 65.7 | 65.7 | 89.8 | 94.2 | 76 | 85.6 | 79 | 89.9 | 131 | 65.2
CN(c1ncccc1CNc1nc(Nc2ccc3c(c2)CC(=O)N3)ncc1C(F)(F)F)S(C)(=O)=O + c1cc(-c2cnn3cc(-c4ccc(OCCN5CCCCC5)cc4)cnc23)ccn1 [Dorsomorphin] (first compound 0.4 µM, partner dose 2 µM) | 65.1 | 76.3 | 82.1 | 54.9 | 43.2 | 70.7 | 46 | 62.8 | 43.2 | 148
C=C(c1ccc(C(=O)O)cc1)c1cc2c(cc1C)C(C)(C)CCC2(C)C [Bexarotene] + COc1ccc(Cl)c(Nc2nc3ccccc3nc2NS(=O)(=O)c2cccc(NC(=O)C(C)(C)N)c2)c1 [XL147] (first compound 10 µM, partner dose 4 µM) | 91.1 | 88 | 70.2 | 99.7 | 84.5 | 73.7 | 91.2 | 77.7 | 141 | 144
C=C(c1ccc(C(=O)O)cc1)c1cc2c(cc1C)C(C)(C)CCC2(C)C [Bexarotene] + Cc1cc(N2CCOCC2)cc2[nH]c(-c3c(NC[C@@H](O)c4cccc(Cl)c4)cc[nH]c3=O)nc12 [BMS536924] (first compound 10 µM, partner dose 1 µM) | 85.8 | 92.8 | 76 | 99.7 | 88.9 | 86.8 | 108 | 74.8 | 96.2 | 92
CS(=O)(=O)c1ccc(C(=O)Nc2ccc(Cl)c(-c3ccccn3)c2)c(Cl)c1 [vismodegib] + CN1CCN(c2ccc3nc(-c4c(N)c5c(F)cccc5[nH]c4=O)[nH]c3c2)CC1 [Dovitinib] (first compound 5 µM, partner dose 0.5 µM) | 83.9 | 73.8 | 81.8 | 58.9 | 120 | 78.4 | 47.4 | 48.1 | 74.9 | 105
CCCS(=O)(=O)Nc1ccc(F)c(C(=O)c2c[nH]c3ncc(Cl)cc23)c1F + COc1cc(N2CCC(N3CCN(C)CC3)CC2)ccc1Nc1ncc(Cl)c(Nc2ccccc2S(=O)(=O)C(C)C)n1 [NVP-TAE684] (first compound 0.4 µM, partner dose 0.4 µM) | 56.5 | 71.7 | 86.1 | 88.1 | 237 | 72.8 | 68.2 | 70 | 74.3 | 79.5
CS(=O)(=O)c1ccc(C(=O)Nc2ccc(Cl)c(-c3ccccn3)c2)c(Cl)c1 [vismodegib] + COc1cc2ncnc(Nc3ccc(Oc4ccccc4)cc3)c2cc1OC [SrcI1] (first compound 5 µM, partner dose 10 µM) | 66.4 | 73.2 | 90.5 | 132 | 78.9 | 85.6 | 59.8 | 72.4 | 60.4 | 122
CS(=O)(=O)c1ccc(C(=O)Nc2ccc(Cl)c(-c3ccccn3)c2)c(Cl)c1 [vismodegib] + Cn1cncc1[C@@](N)(c1ccc(Cl)cc1)c1ccc2c(c1)c(-c1cccc(Cl)c1)cc(=O)n2C [tipifarnib] (first compound 5 µM, partner dose 0.05 µM) | 82.9 | 108 | 91.3 | 78 | 82.5 | 99 | 117 | 97.3 | 92.3 | 98.8
C=C(c1ccc(C(=O)O)cc1)c1cc2c(cc1C)C(C)(C)CCC2(C)C [Bexarotene] + CN(NC(=O)CC(=O)NN(C)C(=S)c1ccccc1)C(=S)c1ccccc1 [STA4783] (first compound 10 µM, partner dose 0.03 µM) | 29.9 | 67.8 | 35.6 | 23.7 | 63.9 | 85.2 | 108 | 23.9 | 65.4 | 45.5
CCCS(=O)(=O)Nc1ccc(F)c(C(=O)c2c[nH]c3ncc(Cl)cc23)c1F + CN(C)S(=O)(=O)c1ccc2c(c1)/C(=C/c1cc3c([nH]1)CCCC3)C(=O)N2 [SU6656] (first compound 0.4 µM, partner dose 2 µM) | 50.9 | 62.2 | 63.8 | 64.1 | 101 | 79.5 | 85.9 | 78.8 | 48.5 | 84.6
C=C(c1ccc(C(=O)O)cc1)c1cc2c(cc1C)C(C)(C)CCC2(C)C [Bexarotene] + O=C1NC(=O)/C(=C/c2ccc(-c3ccc(F)cc3O)o2)S1 [AS252424] (first compound 10 µM, partner dose 5 µM) | 78.6 | 85.2 | 94.6 | 91.6 | 127 | 79.8 | 87.4 | 79.9 | 85.4 | 99.6
NC1(c2ccc(-c3nc4ccn5c(=O)[nH]nc5c4cc3-c3ccccc3)cc2)CCC1 + CCc1ccc(CCOc2ccc(CC3SC(=O)NC3=O)cc2)nc1 [pioglitazone] (first compound 2 µM, partner dose 10 µM) | 72.7 | 78.8 | 71.9 | 73.9 | 66.1 | 66.3 | 101 | 67.1 | 67 | 84.4
CN(c1ncccc1CNc1nc(Nc2ccc3c(c2)CC(=O)N3)ncc1C(F)(F)F)S(C)(=O)=O + O=C(O)c1ccc2c(c1)nc(Nc1cccc(Cl)c1)c1ccncc12 [CX4945] (first compound 0.4 µM, partner dose 2 µM) | 66 | 66 | 47.5 | 93.2 | 72.9 | 61.7 | 52.8 | 78.2 | 55 | 64.1
CS(=O)(=O)c1ccc(C(=O)Nc2ccc(Cl)c(-c3ccccn3)c2)c(Cl)c1 [vismodegib] + C#Cc1cccc(Nc2ncnc3cc(OCCOC)c(OCCOC)cc23)c1 [erlotinib] (first compound 5 µM, partner dose 4 µM) | 70.9 | 66 | 79.6 | 60 | 84.9 | 75.4 | 68.9 | 69.6 | 56.8 | 69.6
